Measured values from PubChem BioAssay (NCATS).
“And” between values parts separate entries of the source, which are not always exact repeats. Equal entries are not always repeated. The inconclusive results got no clear call from the source; some entries with a clear call stand among them for comparison. Potencies of inconclusive entries are doubtful fits and often do not repeat. The source made the active and inactive calls. Calls follow the shape of the dose curve; as a rule, active = well fitted inhibition curve with a large enough effect; inconclusive = small, poorly fitted or top-dose-only effect; inactive = no such curve, though single readings can be large or run the other way.
Potency is read from the fitted curve at half-maximal effect; tags tell the direction and shape of the fitted curve.

These molecules were tested against Cytochrome P450 3A7 (Homo sapiens) (UniProt P24462) (assay: Cytochrome P450 family 3 subfamily A member 7 (CYP3A7) small molecule antagonists: luciferase biochemical qHTS assay (AID 1963596; also: nearly all actives have a fitted effect of over 40% in size)). Conditions: P450-Glo CYP3A7 enzyme luminescence, 1 h; series mostly up to 57.4 µM.
UniProt P24462, sequence (P24462 whole entry, looked up): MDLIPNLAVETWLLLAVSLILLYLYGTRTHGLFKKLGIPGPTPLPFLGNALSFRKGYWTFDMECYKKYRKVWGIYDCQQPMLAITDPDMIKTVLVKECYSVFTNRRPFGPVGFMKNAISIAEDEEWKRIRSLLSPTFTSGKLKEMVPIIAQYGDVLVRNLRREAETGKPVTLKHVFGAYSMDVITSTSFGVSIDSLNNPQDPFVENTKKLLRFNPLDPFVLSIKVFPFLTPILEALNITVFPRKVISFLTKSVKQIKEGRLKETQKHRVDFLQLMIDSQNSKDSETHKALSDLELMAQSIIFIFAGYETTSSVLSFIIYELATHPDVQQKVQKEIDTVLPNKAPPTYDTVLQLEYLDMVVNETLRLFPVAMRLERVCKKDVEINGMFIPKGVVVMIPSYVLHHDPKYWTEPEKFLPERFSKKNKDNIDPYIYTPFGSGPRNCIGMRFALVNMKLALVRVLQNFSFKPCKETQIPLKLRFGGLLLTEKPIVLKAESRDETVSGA
From the text: National Center for Advancing Translational Sciences [NCATS] Assay Overview: Cytochrome P450 (CYP) enzymes are membrane-bound hemeproteins that play a key role in metabolism of drugs and xenobiotics. The CYP3A subfamily is the most abundant, representing 30% of the total adult hepatic CYP content, whereas CYP3A7 is found predominantly in human fetal liver and accounts up to 50% of the total fetal hepatic CYP content. Testing the effect of chemicals on CYP isozymes is useful to minimize the adverse drug reactions and toxicities in the drug development process. Chemicals were tested for their effect on CYP enzyme activities by using P450-Glo (TM) screening systems (Promega Corporation, Madison, WI). These systems provide a luminescent method containing proluciferin substrates and are converted to luciferin products by CYP isozymes. The luciferin products formed are detected with a luciferin detection reagent, and the amount of light produced is proportional to CYP activity. P450-Glo (TM) CYP3A7 screening system (Catalog. No. V8812) was used to detect the compounds that interfere with CYP3A7 activity. The positive control compound used for CYP3A7 assay is ketoconazole (Sigma-Aldrich, St. Louis, MO).
Assay Protocol Summary: Two ul of enzyme-substrate mix was dispensed into medium binding white/solid 1536-well plates (Greiner Bio-One North America Inc., Monroe, NC) using a Flying Reagent Dispenser (FRD, Aurora Discovery, San Diego, CA). Compounds dissolved in DMSO, and positive control (ketoconazole) were transferred to the assay plates at 23 nl using a Pintool station (Wako, San Diego, CA). The assay plates were incubated at room temperature for 10 min. Then 2 ul of NADPH regeneration solution was added to each well of the assay plates using an FRD and incubated at room temperature for 1 h. The reaction was stopped by adding 4 ul of detection reagent using an FRD and after 20 min incubation at room temperature the luminescence signal was measured using a ViewLux plate reader (Perkin Elmer, Shelton, CT). Data were expressed as relative luminescence units.
`COc1ccc(-c2ccc3c(N4CCOCC4)nc(N4CC(C)OC(C)C4)nc3n2)cc1CO` (stereo not given) was tested, and the Potency was inconclusive: 26.8 µM [inhibitor, partial curve, poor fit].
With `CS(=O)(=O)c1ccc(-c2cnc(N)c(C(=O)Nc3ccccc3)n2)cc1` the Potency was inconclusive: 15.8 µM [inhibitor, partial curve].
In the case of `COc1ccc(C(=O)NC(c2ccc(Cl)cc2)c2cc(Cl)c3cccnc3c2O)cc1` (stereo not given), the Potency is reported as “inactive”.
For `O=C(O)Cc1cccc2ccccc12`, the Potency was “inactive”.
In the case of `CN1C[C@@H]2C[C@H]1CN2c1cc2c(cc1F)c(=O)c(C(=O)O)cn2C1CC1`, the Potency is reported as “inactive”.
With `C=CCc1ccccc1OCC(O)CNC(C)C` (stereo not given) the Potency was “inactive”.
With `O=C(NCCCCN1CCN(c2cccc(Cl)c2Cl)CC1)c1cc2ccccc2s1` the Potency was active: 2.82 µM.
In the case of `NC1=N[C@H]2[C@H](CS[C@H]2CCCCC(=O)O)N1`, the Potency is reported as “inactive”.
With `CCc1c(CC(N)=O)c2cc(OCCCP(=O)(O)O)ccc2n1Cc1ccccc1` the Potency was inconclusive: 8.91 µM [inhibitor, partial curve].
For `CCCCCCOC(=O)c1cccnc1`, the Potency was “inactive”.
For `CCc1ccc(OCCn2c(C3CC(=O)N(Cc4ccc(F)cc4)C3)nc3ccccc32)cc1` (stereo not given), the Potency was “inactive”.
With `CCC(Cc1c(I)cc(I)c(O)c1I)C(=O)O` (stereo not given) the Potency was active: 16.9 µM.
In the case of `COc1cc(Nc2c(C#N)cnc3cc(OCCCN4CCN(C)CC4)c(OC)cc23)c(Cl)cc1Cl`, the Potency is reported as active: 15.5 µM.
`CN(C)c1cccc(-c2c3c(=O)n(-c4ccccc4Cl)[nH]c3cc(=O)n2C)c1` was tested, and the Potency was inconclusive: 17.8 µM [inhibitor, partial curve, poor fit].
With `O=[N+]([O-])c1ccc(Oc2ccc(N=C=S)cc2)cc1` the Potency was active: 2.39 µM.
`CC[C@@H](C)[C@H](NC(=O)[C@H](CC1CCCCC1)NC(=O)c1ccno1)C(=O)N1CCC2(CCc3ccccc32)CC1` was tested, and the Potency was inconclusive: 4.25 µM [inhibitor, full curve] and inconclusive: 19 µM [inhibitor, partial curve, poor fit].
`CCn1c(=O)n([C@H]2CCCN(c3nccc(-c4cc5ccccc5o4)n3)C2)c2ccccc21` was tested, and the Potency was inconclusive: 14.1 µM [inhibitor, partial curve, poor fit].
With `Nc1ncnc2c1ncn2[C@H]1CCCO1` the Potency was inconclusive: 17.8 µM [inhibitor, partial curve, poor fit].
With `CC1(C)CC=C(C#Cc2ccccc2)c2cc(/C=C/c3ccc(C(=O)O)cc3)ccc21` the Potency was inconclusive: 37.9 µM [inhibitor, single point].
With `NC(=O)[C@@H]1CC[C@H](c2ccc(OCc3ccccc3F)cc2)N1` the Potency was inconclusive: 19 µM [inhibitor, partial curve, poor fit].
`FC(F)(F)c1ccc(/C=C/c2nc(COc3ccc(CCCCn4ccnn4)cc3)co2)cc1` was tested, and the Potency was inconclusive: 0.891 µM [inhibitor, full curve].
With `N[C@H]1C(O)O[C@H](CO)[C@@H](O)[C@@H]1O` (stereo not given in full) the Potency was “inactive”.
In the case of `OC(c1ccc(-c2ccc(CN3CCN(Cc4ccncc4)CC3)cc2)c(F)c1)(C(F)(F)F)C(F)(F)F`, the Potency is reported as inconclusive: 3.16 µM [inhibitor, full curve].
For `Cn1c(=O)c2[nH]c(Br)nc2n(C)c1=O`, the Potency was “inactive”.
`CO/N=C(\C(=O)N[C@@H]1C(=O)N2C(C(=O)O)=C(C[N+]3(C)CCCC3)CS[C@H]12)c1csc(N)n1` was tested, and the Potency was inconclusive: 13.5 µM [inhibitor, partial curve].
For `CNCCCCOc1ccccc1Cc1ccccc1`, the Potency was inconclusive: 7.76 µM [inhibitor, partial curve, poor fit].
In the case of `COc1ccc(C(=O)N2CCN(CC(=O)N3CCOCC3)CC2)cc1`, the Potency is reported as “inactive”.
With `Cc1ccc(-n2nc3c(N4CCCC(C(=O)NCc5ccccc5C)C4)nnc(C)c3c2C)cc1` (stereo not given) the Potency was active: 0.756 µM.
`O=c1oc2cc(O)ccc2s1` was tested, and the Potency was inconclusive: 13.5 µM [inhibitor, partial curve, poor fit].
For `COC(=O)c1ccc(NC(C)=O)cc1OC`, the Potency was “inactive”.
For `COC(=O)N1CCC(n2ncc3c(N4CCOCC4)nc(-c4ccc(NC(=O)Nc5ccc(CO)cc5)cc4)nc32)CC1`, the Potency was inconclusive: 6.31 µM [inhibitor, full curve].
`CC(C)OC(=O)C1=CN(C(=O)c2ccc(F)c(F)c2)CC(C)(C)c2c1[nH]c1ccccc21` was tested, and the Potency was inconclusive: 3.01 µM [inhibitor, full curve].
For `COc1ccc2c(c1)CCc1sc(NC(=O)c3cccc(Br)c3)nc1-2`, the Potency was inconclusive: 7.08 µM [inhibitor, partial curve].
In the case of `O=C(O)c1ccccn1`, the Potency is reported as “inactive”.
For `O=C(NC1CCC1)c1ccc(C#Cc2cccc(F)c2)nc1`, the Potency was “inactive”.
In the case of `N#Cc1cc(C2=Nc3ccc(Br)cc3NC(=O)C2)ccn1`, the Potency is reported as “inactive”.
With `Cc1ccc(C(=O)Nc2ccc(CN3CCN(C)CC3)c(C(F)(F)F)c2)cc1C#Cc1cnc2[nH]ncc2c1` the Potency was inconclusive: 15.8 µM [inhibitor, partial curve, poor fit].
`C[C@@](Cc1ccc(O)c(O)c1)(NN)C(=O)O` was tested, and the Potency was inconclusive: 8.91 µM [inhibitor, partial curve].
In the case of `C=CCn1c(=O)c2cnc(Nc3ccc(N4CCN(C)CC4)cc3)nc2n1-c1cccc(C(C)(C)O)n1`, the Potency is reported as active: 10 µM.
With `Cc1cc(Nc2ncc(Cl)c(Nc3ccccc3S(=O)(=O)C(C)C)n2)c(OC(C)C)cc1C1CCNCC1` the Potency was inconclusive: 1.9 µM [inhibitor, full curve].
